Measurements from PubChem BioAssay AID1508623 (National Center for Advancing Translational Sciences (NCATS), 2021).
Among all 48,000 compounds or so, about 450 (0.94%) were called active. Not shown: some 19% with an inconclusive outcome. The call rests on the fitted dose curve; in most records, active means well fitted inhibition curve with a large enough effect; inconclusive means small, poorly fitted or top-dose-only effect; inactive means no such curve, though single readings can be large or run the other way. The list shows a part of the results.

Experiment: Primary qHTS for Identification of Small Molecule Inhibitors of Huntingtin Promoter Activity; further: nearly all actives have a fitted effect of over 50% in size
Settings: HEK293 HTT promoter firefly luciferase reporter (activity 0% = vehicle and -100% = no light), 24 h; series mostly up to 57.5 µM; activity change, negative = inhibition: at the top concentration
Procedure, shortened: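 Luminescence was read after Dual-Glo reagent and a 10 min room-temperature incubation. Values were normalized to vehicle (0% activity) and zero RLU (-100% activity). Reporter HEK293 cells had been exposed to compounds (up to 57.5 uM final) for 24 h.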

Activity change, negative = inhibition, inactive:
COc1ccc(OC)c(NC(=O)CSc2nnc3ccc4ccccc4n23)c1 -8.05%
CCc1ccc(NC(=O)CCn2nc(-c3ccccc3OC)c3c(C)cc(C)nc32)cc1 -17.4%
Cc1ccc(-c2nnc(Nc3cccc(O)c3)c3ccccc23)cc1S(=O)(=O)N1CCOCC1 1.03%
COc1ccc(-c2noc(CC(=O)Nc3ccc(F)cc3F)n2)cc1 -6.7%
COc1ccccc1OC(C)C(=O)Nc1ccc(-c2nc3ccccc3s2)cc1 (configuration not stated) 44.8%
COc1ccc(NC(=O)CCn2c(=O)c3cccn3c3cccnc32)c(OC)c1 6.78%
CCC(C(=O)NCc1ccccc1)n1nc(C)c2sc3ccccc3c2c1=O (configuration not stated) -9.12%
CN(Cc1ccccc1)C(=O)Nc1ccc2c(c1)N(C)C(=O)c1ccccc1S2 -23.8%
COc1ccc(-c2cc(C(=O)OC(C)C(=O)c3ccccc3)c3cccc(Cl)c3n2)cc1 (configuration not stated) 12.5%
c1ccc(Nc2c(-c3c[nH]c4ccccc34)nc3ccccn23)cc1 34%
CC(C)Nc1ccc(-c2nc(-c3ccco3)no2)cc1[N+](=O)[O-] 1.46%
CC(C)CCOC(=O)c1ccc(N(C)C)cc1 38.5%
Cc1ccc2nc(N3CCC(C(=O)N4CCN(c5cccc(Cl)c5)CC4)CC3)[nH]c2c1 -18.1%
CCOCCCNC(=O)C(c1ccc(C)cc1)N(Cc1ccc2c(c1)OCO2)C(=O)c1ccc(NC(C)=O)cc1 (configuration not stated) 6.71%
CCC(C)NC(=O)c1ccccc1NC(=O)CN1C(=O)c2cccc3cccc1c23 (configuration not stated) -14.3%
COc1cc2cc(CNc3ccc(C)cc3)c(=O)n(CC(=O)Nc3ccc(F)cc3F)c2cc1OC 34.2%
CC(C)NC(=O)CN1C(=O)COc2ccc(S(=O)(=O)N3CCCCCC3)cc21 -15.6%
COc1cc(C(=O)NCC(c2cccs2)S(=O)(=O)c2ccc(F)cc2)cc(OC)c1OC (configuration not stated) -21.3%
Cc1cccc(OCC(=O)Nc2ccc(Cl)c(-c3nc4ncccc4o3)c2)c1C -9.97%
CC1CC(OC(=O)C(O)c2ccccc2)CC(C)(C)N1C (configuration not stated) 6.35%
Cc1cccc(NC(=O)c2nnn(CC(=O)Nc3ccc(C(C)C)cc3)c2N)c1C -5.97%
CCC(=O)N1CCc2cc(Br)cc(S(=O)(=O)CCC(=O)NCc3ccc(Cl)cc3)c21 -13.3%
CCOc1ccccc1NC(=O)CN(C)S(=O)(=O)c1ccc2nc(C)sc2c1 -14.7%
CSC1=NC2(CCN(C(=O)NC3CCCCC3)CC2)N=C1c1ccc(C)c(C)c1 -20.4% [at 11.5 µM]
Cc1ccc(CNC(=O)CC(C)S(=O)(=O)c2cc3c(cc2C)NC(=O)CO3)cc1 (configuration not stated) -6.04%
Cc1ccc(NC(=O)CCc2nnc3n(C)c(=O)c4sccc4n23)cc1C -1.8%
CC(C)Oc1ccc(C(=O)N(Cc2ccco2)c2ccccn2)cc1 22.7%
Cc1ccc(C)c(NC(=O)CN2C(=O)C(C)(C)c3ccccc32)c1 -10.9%
COc1ccc(Br)cc1CNC(=O)c1cc2n(n1)CCCN(Cc1ccc(C)cc1)C2=O -30.1%
COC(=O)c1scc(-c2ccc(C)cc2)c1S(=O)(=O)N1CCN(c2cccc(OC)c2)CC1 -26.6%
CCc1nnc(SC(CC)C(=O)Nc2cccc(OC)c2)c2cc3oc(C)cc3n12 (configuration not stated) -1.01%
Cc1ccc(Sc2c(C)nn(C(C)(C)C)c2OC(=O)C(C)(C)C)cc1 -10.5%
CCOC(=O)c1ccc(NC(=O)CC2C(=O)OCCN2CC)cc1 (configuration not stated) -0.861%
CCN(c1ccccc1)c1nnc(NC(=O)Nc2ccccc2F)s1 -29.8%
Cc1c2cnn(CC(=O)Nc3cccc(C(F)(F)F)c3)c(=O)c2c(C)n1Cc1ccccc1Cl -27%
CCOC(=O)N1CCc2c(sc3c2c(=O)n(-c2ccc(CC)cc2)c(=O)n3CC(=O)c2ccc(F)cc2)C1 -4.83%
COc1ccccc1/C=C/c1nc(C#N)c(N(C)C)o1 78.8%
CCN(C(=O)CSc1nc2ccccc2n1Cc1cc(C)ccc1C)c1ccccc1 0%
Cc1c2cnn(CC(=O)NC(C)C)c(=O)c2c(C)n1Cc1ccccc1Cl 24.3%
Cc1nnc(NS(=O)(=O)c2ccc(N)cc2)s1
O=C(Cn1nc(-c2ccc(Cl)cc2)ccc1=O)NCc1ccccc1Cl -8.48%
COc1cccc(N2CCN(C3C(=O)c4ccccc4N3C(C)=O)CC2)c1 (configuration not stated) -22.5%
COc1cccc(C2C(C(=O)Nc3ccc(C)cc3C)=C(C)Nc3c(C(=O)Nc4cccc(C)c4)cnn32)c1OC (configuration not stated) -10.5%
COc1ccc(N2CCN(C(=O)c3ccc(-c4nc(COc5ccccc5)c(C)o4)cc3)CC2)cc1 -7.75%
Cc1cccc(OCC(=O)N(Cc2sccc2C)C2CCS(=O)(=O)C2)c1 (configuration not stated) -14.6%
CCCNC(=O)C1CCC(Cn2c(=O)c3sccc3n(CC(=O)N3CCC(C)CC3)c2=O)CC1 (configuration not stated) 1.22%
Cc1ccccc1OCCn1c(CCNC(=O)C(C)(C)C)nc2ccccc21 3.58%
CC1=C(c2ccc(C)c(C)c2)S(=O)(=O)N=C1N1CCC(C(=O)NCc2ccc(C)o2)CC1 -24.3%
CC(C)(C)OC(=O)N1CCC(c2c(C(=O)N3CCc4ccccc4C3)cnn2-c2ccc(F)cc2)CC1 -18.8%
CC(NC(=O)CCCn1c(=O)c2cccn2c2cccnc21)c1ccccc1 (configuration not stated) 1.03%
CCOc1ccc(-c2nc(C#N)c(NCCCOC)o2)cc1 -15.1%
Cc1coc2c(C)c3oc(=O)c(CCC(=O)NCCc4ccc(Cl)cc4)c(C)c3cc12 -12.4%
COCCCNC(=O)c1c(NC(=O)Cc2coc3cc(C)cc(C)c23)sc2c1CCCC2 -20.5%
CCc1ccc(CNC(=O)CSc2cc(=O)n(C)c3ccc(Cl)cc23)cc1 -17.3%
CCN(CCCNC(=O)c1cc2c(=O)n(CC)c3ccccc3c2s1)c1ccccc1 -10.6%
CC(NC(=O)CCSCc1ccccc1F)c1ccccc1 (configuration not stated) 30.8%
O=C(c1ccc2c(c1)N(Cc1ccccc1F)C(=O)c1ccccc1S2(=O)=O)N1CCCC1 -7.48%
COc1ccc(C(=O)N(Cc2cc(OC)c(OC)c(OC)c2)CC2CCCO2)cc1 (configuration not stated) -1.85%
Cc1cc(F)ccc1NCc1ccccc1-c1nnc(-c2ccccc2Cl)o1 19.4%
Cc1ccc(-c2noc(-c3nnn(CC(=O)Nc4cc(C)cc(C)c4)c3N)n2)cc1 0.557%
O=C(CSc1nccn1Cc1ccc(F)cc1)Nc1ccc2c(c1)OCCO2 14.5%
CCCNC(=O)CSc1nc2nc(C)c(Cc3ccccc3Cl)c(C)n2n1 -18%
